Experimental data reported in PubChem BioAssay AID1460 (National Center for Advancing Translational Sciences (NCATS), 2008).
Where “and” joins values, the source holds several entries; their conditions need not be identical. Equal entries are not always repeated. In all, about 270,000 compounds went through this assay and about 5,800 (2.1%) were called active. Inconclusive means that the source gave no clear call. Such entries were picked first, then a sample of the others. Calls come from the whole dose curve; as a rule, active = well fitted inhibition curve with a large enough effect; inconclusive = small, poorly fitted or top-dose-only effect; inactive = flat fitted curve, though single readings scatter. Potencies beside an inconclusive call are fits to weak or partial responses and may not hold up.

target: Microtubule-associated protein tau (Homo sapiens) (UniProt P10636); experiment: qHTS for Inhibitors of Tau Fibril Formation, Thioflavin T Binding; details: recombinant tau K18 P301L, heparin-induced fibrillization, ThT fluorescence; series mostly up to 57.4 µM; activity, negative = inhibition: at the top concentration; note: nearly all actives have a fitted effect of over 55% in size
Sequence of UniProt P10636 (P10636 whole entry, looked up): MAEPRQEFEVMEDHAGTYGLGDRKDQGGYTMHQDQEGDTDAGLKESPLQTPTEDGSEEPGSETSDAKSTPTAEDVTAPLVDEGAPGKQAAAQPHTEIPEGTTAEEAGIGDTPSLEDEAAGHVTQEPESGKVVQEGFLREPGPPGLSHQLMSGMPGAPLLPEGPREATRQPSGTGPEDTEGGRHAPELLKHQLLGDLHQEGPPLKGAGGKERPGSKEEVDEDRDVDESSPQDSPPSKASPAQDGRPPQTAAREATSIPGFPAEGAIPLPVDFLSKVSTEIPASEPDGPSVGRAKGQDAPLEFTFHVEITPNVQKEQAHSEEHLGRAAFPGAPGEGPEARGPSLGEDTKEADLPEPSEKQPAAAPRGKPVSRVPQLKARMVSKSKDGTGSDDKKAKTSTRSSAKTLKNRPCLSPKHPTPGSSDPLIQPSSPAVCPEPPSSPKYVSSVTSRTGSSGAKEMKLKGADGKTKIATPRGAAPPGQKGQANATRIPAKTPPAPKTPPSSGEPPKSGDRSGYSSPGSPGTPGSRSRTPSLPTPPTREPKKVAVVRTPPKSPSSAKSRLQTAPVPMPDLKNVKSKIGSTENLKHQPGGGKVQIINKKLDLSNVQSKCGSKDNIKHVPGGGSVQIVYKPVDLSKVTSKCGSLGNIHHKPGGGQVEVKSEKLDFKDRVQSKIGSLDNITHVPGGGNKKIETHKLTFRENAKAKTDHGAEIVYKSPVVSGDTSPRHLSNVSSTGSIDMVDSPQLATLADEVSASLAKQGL
Method in brief: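 ThT emission at 510 nm, taken 1 hr after adding 30 uM dye, quantifies aggregates formed when 20 uM heparin acts on human tau K18 P301L for 6 hr at 37 C.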
% is set by controls: 0 for no effect and ±100 for the full control effect; potency is the fitted concentration of half-maximal effect; tags give direction and shape of the fitted curve.

Q: For `COc1ccc(OC)c(NC(=O)C(=O)/C=C(\O)c2cc(OC)ccc2OC)c1`, which Potency is on record?
A: inconclusive: 35.5 µM [activator, single point]

Q: With `CCOC(=O)CN(Cc1ccccc1)C(C(=O)NC1CCCCC1)c1ccc(OC)cc1` (stereo not given) as the compound, how does the Potency read?
A: inconclusive: 17.8 µM [inhibitor, single point]

Q: How did the “activity, negative = inhibition” value turn out when `CC(=O)c1cccc(NC(=O)C(CC(C)C)NS(=O)(=O)c2ccc3c(c2)CCN3C(C)=O)c1` (stereo not given) was run?
A: inactive: 1.68%

Q: With `CC(OC(=O)c1cccc(N2C(=O)c3ccccc3C2=O)c1)C(=O)Nc1ccc(N(C)C)cc1` (stereo not given) as the compound, how does the Potency read?
A: inconclusive: 22.4 µM [inhibitor, partial curve]

Q: For `O=C(Nc1sccc1C(=O)NCc1ccco1)c1cccnc1`, which Potency is on record?
A: inconclusive: 35.5 µM [inhibitor, partial curve, poor fit]

Q: Which “activity, negative = inhibition” value does the source give for `O=C(NCCc1ccccc1)C1CCN(Cc2cc3ccccc3n2Cc2cccc(Cl)c2)CC1` here?
A: inactive: -8.52%

Q: `Cc1ccc(CNC(=O)C(=O)NCC2OCCN2C(=O)c2cccs2)cc1` (stereo not given) was tested. Which “activity, negative = inhibition” value did it give?
A: inactive: -3.39%

Q: `Cc1ccc(-c2cc(-c3ccco3)c(C#N)c(=O)[nH]2)cc1` was tested. Which Potency did it give?
A: inconclusive: 20 µM [inhibitor, partial curve]

Q: `O=C(OCC(=O)N1CCN(C(=O)c2ccco2)CC1)c1ccccc1OCc1ccc(Cl)cc1` was tested. Which “activity, negative = inhibition” value did it give?
A: inactive: -18.4%

Q: For `O=C(/C=C/c1ccccc1)NCc1ccco1`, which “activity, negative = inhibition” value is on record?
A: inactive: -5.71%

Q: For `CCc1ccc(NC(=O)CN2CCc3ccccc3C2)cc1`, which Potency is on record?
A: inconclusive: 15.8 µM [inhibitor, partial curve]

Q: How did the “activity, negative = inhibition” value turn out when `O=C(NCCN1C(=O)S/C(=C\c2ccc(OC(F)F)cc2)C1=O)c1cnccn1` was run?
A: inactive: -17.8%

Q: With `CC(Nc1cc(N2CCN(C(=O)C(C)(C)C)CC2)ccc1[N+](=O)[O-])c1ccccc1` (stereo not given) as the compound, how does the Potency read?
A: inconclusive: 14.1 µM [inhibitor, partial curve]

Q: For `O=C(Nc1ccc2c(c1)CCC2)c1ccc(Cl)nc1`, which Potency is on record?
A: inconclusive: 22.4 µM [inhibitor, single point]

Q: Which “activity, negative = inhibition” value does the source give for `CCOC(=O)C1(CCCc2ccccc2)CCN(C(=O)CCC2=NNC(=O)CC2)CC1` here?
A: inactive: -3.87%

Q: For `O=C(CSc1nncc(=O)[nH]1)NCc1ccccc1`, which “activity, negative = inhibition” value is on record?
A: inactive: -16%

Q: How did the “activity, negative = inhibition” value turn out when `O=C(N/N=C/c1ccc(O)cc1)c1cc(-c2ccc3c(c2)OCO3)n[nH]1` was run?
A: inactive: 3.95%

Q: `COc1ccc(-c2c[n+]3c4n2CCCCC4=C(c2ccccc2)C3)cc1` was tested. Which Potency did it give?
A: inconclusive: 31.6 µM [inhibitor, partial curve]

Q: For `Cc1oc2cc(OCc3cnn(-c4ccccc4)c3)ccc2c(=O)c1Oc1ccccc1F`, which “activity, negative = inhibition” value is on record?
A: inactive: -15.5%

Q: `CCn1c(C(=O)N2CCc3ccccc3C2)cc2sccc21` was tested. Which Potency did it give?
A: inconclusive: 20 µM [inhibitor, partial curve]

Q: Which “activity, negative = inhibition” value does the source give for `Cc1cc(-c2ccccc2)[nH]c(=O)c1C#N` here?
A: inactive: 4.34%

Q: With `O=C(NCc1ccccc1)c1ccc2c(=O)[nH]c3c(C(=O)NCC4CCCO4)sc(=S)n3c2c1` (stereo not given) as the compound, how does the Potency read?
A: active: 14.1 µM

Q: How did the Potency turn out when `CCOC(=O)C1=C(CSc2nc3c(cc2C#N)CN(C)CC3)OC(N)=C(C#N)C1c1ccc(F)cc1` (stereo not given) was run?
A: active: 15.8 µM

Q: `CCOc1cc(/C=N/O)cc(Br)c1OCc1ccc(Cl)cc1` was tested. Which Potency did it give?
A: inconclusive: 20 µM [inhibitor, single point]

Q: Which Potency does the source give for `O=C(Nn1c(O)c(C=C2N=c3ccccc3=N2)sc1=S)c1ccccc1` here?
A: active: 14.1 µM

Q: Which Potency does the source give for `C=C(C)C1CC=C(C)/C(=N/Nc2ccccc2[N+](=O)[O-])C1` (stereo not given) here?
A: inconclusive: 12.6 µM [inhibitor, partial curve]

Q: With `CN(Cc1ccccc1)C(=O)N1CCOCC1` as the compound, how does the “activity, negative = inhibition” value read?
A: inactive: -14.5%

Q: With `CC1=C/C(=N\OS(=O)(=O)c2ccccc2)C(C(C)C)=CC1=O` as the compound, how does the Potency read?
A: active: 10 µM

Q: `CC(C)(C)c1nnc2sc(SC/C(O)=C(\C#N)c3nc4ccccc4[nH]3)nn2c1=O` was tested. Which Potency did it give?
A: inconclusive: 17.8 µM [inhibitor, partial curve]

Q: How did the Potency turn out when `Cc1ccc(Nc2nc3ccccc3c3nnc(C)n23)c(C)c1` was run?
A: inconclusive: 39.8 µM [inhibitor, single point]

Q: Which Potency does the source give for `COc1ccc(-c2cc3nc(C)c(CCC(=O)N4CCN(c5ccc(F)cc5)CC4)c(C)n3n2)c(OC)c1` here?
A: inconclusive: 3.55 µM [inhibitor, partial curve]

Q: How did the Potency turn out when `COc1ccc(C(=O)/C=C2/Sc3cc4c(cc3N2C)OCO4)cc1` was run?
A: inconclusive: 0.708 µM [inhibitor, full curve]

Q: `Cc1ccccc1-c1nn2c(-c3ccccc3)nnc2s1` was tested. Which Potency did it give?
A: inconclusive: 10 µM [inhibitor, partial curve]

Q: With `Cc1cccc(NC2=NC(C)(C)N=C(N)N2)c1C` as the compound, how does the “activity, negative = inhibition” value read?
A: inactive: -2.47%

Q: `CCN1CCN(C(c2ccc(C)cc2)c2c(O)cc(C)n(Cc3ccco3)c2=O)CC1` (stereo not given) was tested. Which Potency did it give?
A: inconclusive: 10 µM [inhibitor, partial curve, poor fit]

Q: Which Potency does the source give for `Cc1ccc(N2CCN(C(=O)c3cnn(-c4ccc(F)cc4F)c3C3CCN(C(=O)OC(C)(C)C)CC3)CC2)c(C)c1` here?
A: inconclusive: 35.5 µM [inhibitor, single point]

Q: Which Potency does the source give for `Cc1ccccc1C(=O)OCc1cc(=O)n2nc(C(C)C)sc2n1` here?
A: inconclusive: 11.2 µM [inhibitor, partial curve]

Q: For `O=C(Nc1ccc(S(=O)(=O)N2CCOCC2)cc1)c1ccc([N+](=O)[O-])o1`, which Potency is on record?
A: inconclusive: 39.8 µM [inhibitor, single point]

Q: Which Potency does the source give for `Nc1ccc(N=Nc2ccccc2)c(N)n1` here?
A: active: 3.98 µM and active: 12.6 µM

Q: For `COc1cc(OC)c(N(C)C(=O)c2cn(C3CCCC3)c(=O)c3c2c2ccccc2n3C)cc1Cl`, which Potency is on record?
A: inconclusive: 28.2 µM [inhibitor, single point]

Q: Which Potency does the source give for `CC(C)C(=O)N1CCN(c2ccc(NC(=O)c3ccc([N+](=O)[O-])o3)cc2)CC1` here?
A: active: 5.01 µM

Q: For `COc1ccc(-n2nc(C(=O)Nc3ccc(Cl)cn3)c3c4ccccc4n(C)c3c2=O)cc1`, which “activity, negative = inhibition” value is on record?
A: inactive: 0.051%

Q: For `O=C(Nc1cccc(C(F)(F)F)c1)N1CC2CCCN2c2ccccc21` (stereo not given), which “activity, negative = inhibition” value is on record?
A: inactive: -5.68%

Q: `COC(=O)[C@@]1(Cc2ccccc2)[C@H]2c3cc(C(=O)N4CCCC4)n(Cc4ccc(C)o4)c3C[C@H]2CN1C(=O)c1ccccc1` was tested. Which Potency did it give?
A: inconclusive: 20 µM [inhibitor, single point]

Q: Which Potency does the source give for `Cc1cc(NC(=O)c2sc(Nc3ccc(F)c(Cl)c3)nc2N)no1` here?
A: inconclusive: 2.51 µM [inhibitor, full curve]
